# Test results taken from PubChem BioAssay AID504332 (National Center for Advancing Translational Sciences (NCATS), 2011).
# In all, about 350,000 compounds went through this assay and about 31,000 (8.9%) were called active. Inconclusive means that the source gave no clear call. Such entries were picked first, then a sample of the others. Calls come from the whole dose curve; as a rule, active = well fitted inhibition curve with a large enough effect; inconclusive = small, poorly fitted or top-dose-only effect; inactive = no such curve, though single readings can be large or run the other way. A potency beside an inconclusive call is a rough fit, not a confirmed value.
# Target: Histone-lysine N-methyltransferase EHMT2 (Homo sapiens) (UniProt Q96KQ7)
# Experiment: qHTS Assay for Inhibitors of Histone Lysine Methyltransferase G9a; note: nearly all actives have a fitted effect of over 75% in size
# Settings: G9a H3K9 monomethylation, AlphaScreen, 2 h; activity, negative = inhibition: at 59 µM (top of the series) unless noted
# Procedure, shortened: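 G9a (20 nM) preincubated 15 min RT with compounds, then 500 nM biotinylated H3K9 peptide and 20 uM SAM added; 2 h RT reaction. Monomethyl-H3K9 product detected by AlphaScreen with anti-H3K9me1 antibody, streptavidin donor and anti-rabbit IgG acceptor beads.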
# % is set by controls: 0 for no effect and ±100 for the full control effect; potency is the fitted concentration of half-maximal effect; tags give direction and shape of the fitted curve.
# Sequence of UniProt Q96KQ7 (Q96KQ7 whole entry, looked up): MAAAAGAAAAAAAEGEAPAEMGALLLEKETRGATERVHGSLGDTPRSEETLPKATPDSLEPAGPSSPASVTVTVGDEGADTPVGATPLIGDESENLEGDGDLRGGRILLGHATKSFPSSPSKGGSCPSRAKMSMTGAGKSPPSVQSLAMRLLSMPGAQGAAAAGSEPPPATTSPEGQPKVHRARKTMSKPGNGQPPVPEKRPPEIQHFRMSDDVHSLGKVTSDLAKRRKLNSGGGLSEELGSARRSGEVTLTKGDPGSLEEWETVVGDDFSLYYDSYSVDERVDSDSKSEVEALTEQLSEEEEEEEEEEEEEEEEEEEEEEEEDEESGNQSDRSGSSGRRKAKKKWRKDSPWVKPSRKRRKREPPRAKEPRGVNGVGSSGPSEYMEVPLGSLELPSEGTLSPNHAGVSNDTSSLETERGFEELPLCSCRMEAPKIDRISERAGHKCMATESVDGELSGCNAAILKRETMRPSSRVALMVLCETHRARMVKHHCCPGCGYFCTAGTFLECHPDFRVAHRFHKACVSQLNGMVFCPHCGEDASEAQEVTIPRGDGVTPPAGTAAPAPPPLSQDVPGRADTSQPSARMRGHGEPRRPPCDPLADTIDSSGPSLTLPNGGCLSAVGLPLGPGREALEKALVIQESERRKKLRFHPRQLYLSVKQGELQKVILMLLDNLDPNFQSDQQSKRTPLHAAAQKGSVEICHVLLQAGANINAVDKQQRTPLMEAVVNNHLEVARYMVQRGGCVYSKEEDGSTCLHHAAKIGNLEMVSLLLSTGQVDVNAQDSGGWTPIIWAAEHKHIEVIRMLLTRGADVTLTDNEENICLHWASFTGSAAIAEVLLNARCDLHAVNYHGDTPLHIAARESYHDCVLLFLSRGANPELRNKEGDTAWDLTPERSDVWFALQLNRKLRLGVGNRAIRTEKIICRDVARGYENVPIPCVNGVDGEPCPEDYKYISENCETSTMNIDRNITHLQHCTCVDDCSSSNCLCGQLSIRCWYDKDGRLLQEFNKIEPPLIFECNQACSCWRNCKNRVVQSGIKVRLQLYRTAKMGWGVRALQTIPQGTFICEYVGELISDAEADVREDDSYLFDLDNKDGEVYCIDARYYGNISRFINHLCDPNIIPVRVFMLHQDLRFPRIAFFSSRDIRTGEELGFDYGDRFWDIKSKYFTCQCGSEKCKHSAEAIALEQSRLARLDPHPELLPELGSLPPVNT
SMILES,Potency,"activity, negative = inhibition"
COc1cccc(NC(=O)C(CCSC)NC(=O)C2CCC(C)CC2)c1 (stereo not drawn),"inconclusive: 28.2 µM [inhibitor, partial curve, poor fit]",–
CNc1ccc(Oc2nc([N+](=O)[O-])nn2C)cc1,active: 50.1 µM,–
CCn1c(=O)cc(OCC(=O)NCc2ccco2)c2ccccc21,"inconclusive: 70.8 µM [inhibitor, single point]",–
CC(C)(C)c1ccccc1NC(=O)Cn1cnc2cc([N+](=O)[O-])ccc2c1=O,"inconclusive: 50.1 µM [inhibitor, partial curve]",–
N#CC1(NC(=O)COc2ccc3oc4ccccc4c3c2)CCCCC1,–,inactive: -2.61%
COc1cccc(Nc2nc(Nc3ccc(Cl)c(C(=O)O)c3)nc(C)c2[N+](=O)[O-])c1,"inconclusive: 22.4 µM [inhibitor, partial curve, poor fit]",–
C/C(=N\Nc1ccccn1)c1ccc(C#N)cc1,"inconclusive: 89.1 µM [inhibitor, partial curve, poor fit]",–
CC(C)NC(=O)C1COc2ccccc2O1 (stereo not drawn),"inconclusive: 0.562 µM [inhibitor, partial curve, poor fit]",–
Cc1nn(-c2cccc(Cl)c2)c2c1C(c1ccncc1)C(C#N)=C(N)O2 (stereo not drawn),"inconclusive: 4.47 µM [inhibitor, single point]",–
O=C(/C=C(\O)c1ccccc1)C(=O)NNC(=O)c1ccccc1[N+](=O)[O-],"inconclusive: 39.8 µM [inhibitor, partial curve, poor fit]",–
O=C(CSc1nc2c(cnn2-c2cccc(Cl)c2)c(=O)[nH]1)NCCC1=CCCCC1,–,inactive: 27.4% [at 12.7 µM]
CCOC(=O)CCCCC(=O)c1[nH]c(=O)[nH]c1CN1CCOCC1,"inconclusive: 39.8 µM [inhibitor, single point]",–
COc1ccc(CC(=O)n2[nH]c(=O)ccc2=O)cc1OC,active: 1.12 µM,–
ClCC1NCC(c2ccccc2Cl)c2c1[nH]c1ccccc21 (stereo not drawn),"inconclusive: 89.1 µM [inhibitor, single point]",–
Cc1cccc(Cn2c(=O)oc3ccc(C)cc32)c1,–,inactive: 130% [at 102 µM]
CCOc1ccc(S(=O)(=O)N(C(=O)c2ccncc2)c2ccc3oc(C)c(C(=O)OC)c3c2)cc1,"inconclusive: 10 µM [inhibitor, partial curve, poor fit]",–
CCOc1ccc(C2=CC(c3cc(Br)ccc3F)n3ncnc3N2)cc1Cl (stereo not drawn),–,inactive: -34.3%
O=S(=O)(Nc1ccc(-n2cccc2)cc1)c1ccc(Cl)c(Cl)c1,"inconclusive: 70.8 µM [inhibitor, partial curve, poor fit]",–
O=C(Nc1scc(-c2ccccc2)c1C(=O)O)c1ccco1,"inconclusive: 56.2 µM [inhibitor, partial curve, poor fit]",–
O=C(Nc1ccc(N2CCCCC2)c(Cl)c1)c1ccc2c(c1)OCCO2,"inconclusive: 89.1 µM [inhibitor, partial curve, poor fit]",–
CCCCCCCCOc1ccc(C2OC34CCCCC3C(C#N)(C#N)C2(C#N)C(=N)O4)cc1 (stereo not drawn),"inconclusive: 89.1 µM [inhibitor, partial curve, poor fit]",–
Cc1ccc(NC(=O)CN2CCN(Cc3ccccc3)CC2)cc1,–,inactive: -2.67% [at 102 µM]

SMILES,Potency,"activity, negative = inhibition"
Cc1ccc(N(CN2CCCC2=O)C(=O)c2ccc(C)c(C)c2)cc1,"inconclusive: 39.8 µM [inhibitor, partial curve, poor fit]",–
CCOC(=O)c1nn(-c2ccc3ccccc3c2)cc1O,–,inactive: -3.21% [at 102 µM]
COc1ccc(CNc2ncnc3ccc(-c4ccc5c(c4)OCO5)cc23)c(OC)c1,–,inactive: -0.95% [at 0.501 µM]
COC(=O)Cn1ncn2c(cc3oc(C)cc32)c1=O,"inconclusive: 35.5 µM [inhibitor, single point]",–
CCOc1ccc(-n2c(COc3ccccc3)nnc2SCC(N)=O)cc1,"inconclusive: 79.4 µM [inhibitor, partial curve, poor fit]",–
CC1(C)NC(=O)N(CC(O)CN(Cc2ccccc2)Cc2ccccc2)C1=O (stereo not drawn),"inconclusive: 79.4 µM [inhibitor, single point]",–
COc1ccc(C)cc1NC(=O)CC(=O)Nc1ccc2nc3n(c(=O)c2c1)CCCCC3,"inconclusive: 31.6 µM [inhibitor, partial curve, poor fit]",–
COc1ccccc1C(=O)N/N=C(\C)CC(=O)Nc1ccc(Nc2ccccc2)cc1,active: 39.8 µM,–
O=C(NCc1ccccc1)c1cc(S(=O)(=O)N2CCOCC2)ccc1F,"inconclusive: 3.16 µM [inhibitor, partial curve]",–
CC1=NN(C(=O)Cc2ccccc2)C(O)(c2cccnc2)C1 (stereo not drawn),–,inconclusive: -51.1% [inhibitor] [at 12.7 µM]
Cc1nc2c(C(=O)NCCC(C)C)c[nH]n2c(=O)c1Cl,"inconclusive: 89.1 µM [inhibitor, single point]",–
O=C(COC(=O)c1cc(-c2ccccc2)nc2c(Cl)cccc12)c1ccc(F)cc1,–,inactive: -0.137%
Cc1cc(S(=O)(=O)Nc2cccc([N+](=O)[O-])c2)c(C)s1,–,inactive: -2.09% [at 0.501 µM]
O=C(NC(=O)C(F)(F)F)Nc1ccc(S(=O)(=O)Nc2nccs2)cc1,"inconclusive: 89.1 µM [inhibitor, single point]",–
CCCCC(=O)Nc1ccccc1C(C)C,–,inactive: 9.23% [at 102 µM]
Cc1cc(C)c(S(=O)(=O)NCCc2ccccc2)c(C)c1,–,inactive: 0.103% [at 12.7 µM]
COc1ccc(OC)c(NC(=O)C(=O)NNC(=O)c2cccs2)c1,"inconclusive: 3.55 µM [inhibitor, single point]",–
Cc1nn(CC(=O)Nc2cccc(C(F)(F)F)c2)c(=O)c2nn(-c3ccccc3)c(C)c12,"inconclusive: 3.55 µM [inhibitor, partial curve, poor fit]",–
CN(C)CCN(C(=O)c1ccc2ccccc2c1)c1nc2ccc(F)cc2s1,active: 44.7 µM,–
CCOC(=O)c1c(NS(=O)(=O)Cc2ccccc2)sc2c1CCCC2,"inconclusive: 79.4 µM [inhibitor, single point]",–
CCCCn1c(=O)c2c(nc3n2CCCN3Cc2ccccc2)n(C)c1=O,"inconclusive: 89.1 µM [inhibitor, single point]",–
